Assay results from PMC4336329 (PLoS ONE, 2015).
The whole screen tested about 310,000 compounds, of which about 14,000 (4.5%) showed an effect of 50% or more. Effects have a minus sign here. The list shows a part of the results.

molecular target: human ether-à-go-go-related gene (hERG) potassium channel (human, UniProt Q12809); experiment: primary screen, population patch clamp on CHO cells stably expressing hERG
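Note: peak tail current of the secondary pulse compared with the same well before compound.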

Chain of human ether-à-go-go-related gene (hERG) potassium channel (Q12809 whole entry, looked up): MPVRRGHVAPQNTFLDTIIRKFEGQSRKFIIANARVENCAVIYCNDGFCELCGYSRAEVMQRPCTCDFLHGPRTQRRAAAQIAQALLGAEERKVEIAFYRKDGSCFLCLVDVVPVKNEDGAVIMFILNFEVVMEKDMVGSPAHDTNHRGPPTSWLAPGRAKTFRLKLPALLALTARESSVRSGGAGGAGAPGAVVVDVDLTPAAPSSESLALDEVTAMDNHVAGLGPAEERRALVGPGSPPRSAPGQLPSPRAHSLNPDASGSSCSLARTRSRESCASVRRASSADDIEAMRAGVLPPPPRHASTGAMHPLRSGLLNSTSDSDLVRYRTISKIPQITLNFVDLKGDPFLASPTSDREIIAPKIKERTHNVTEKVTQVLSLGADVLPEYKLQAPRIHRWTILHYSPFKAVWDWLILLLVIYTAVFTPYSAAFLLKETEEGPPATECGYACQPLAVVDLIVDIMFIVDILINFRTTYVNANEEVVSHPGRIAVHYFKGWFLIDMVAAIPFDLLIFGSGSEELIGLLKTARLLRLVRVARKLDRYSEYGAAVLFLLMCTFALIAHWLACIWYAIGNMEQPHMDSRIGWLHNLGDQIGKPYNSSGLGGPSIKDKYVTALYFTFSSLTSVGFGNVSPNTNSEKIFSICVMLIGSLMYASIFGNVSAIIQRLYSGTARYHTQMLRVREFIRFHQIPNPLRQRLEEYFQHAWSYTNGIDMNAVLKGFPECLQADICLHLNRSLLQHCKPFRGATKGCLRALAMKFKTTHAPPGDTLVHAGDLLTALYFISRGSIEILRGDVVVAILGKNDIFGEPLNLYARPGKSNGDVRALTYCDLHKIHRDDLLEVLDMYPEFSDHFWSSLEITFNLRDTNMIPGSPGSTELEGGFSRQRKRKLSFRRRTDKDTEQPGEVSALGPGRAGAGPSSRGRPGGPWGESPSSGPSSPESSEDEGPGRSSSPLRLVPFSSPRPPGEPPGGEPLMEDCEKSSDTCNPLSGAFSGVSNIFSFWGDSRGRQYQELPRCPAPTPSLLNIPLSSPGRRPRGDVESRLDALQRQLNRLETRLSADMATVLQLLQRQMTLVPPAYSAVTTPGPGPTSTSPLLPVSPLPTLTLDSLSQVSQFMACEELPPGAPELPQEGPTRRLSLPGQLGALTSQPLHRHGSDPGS

Compound | hERG current change (%, negative = inhibition) at 10uM [%]
CCOC(=O)C1CCCN(C(=O)c2ccc(OC)c([N+](=O)[O-])c2)C1 (stereo not drawn) | -4.74
CC(C)(C)[C@H]1C=C(C(=O)N2CCN(Cc3ccc4c(c3)OCO4)CC2)O[C@@H](OCc2ccc(CO)cc2)C1 | -33.7
O=[N+]([O-])c1ccccc1Nc1cccnc1 | 6.81
COc1ccc(S(=O)(=O)n2ccnc2C)c(C)c1C | 27
Cc1ccc(S(=O)(=O)N(C)CCCC(=O)NC(C)(C)CO)cc1 | 14.8
Cc1cc(SCC(=O)c2ccc(Cl)cc2)nc(=O)[nH]1 | 7.32
O=C(Nc1ccc(Cl)c(Cl)c1)Nc1nc(-c2ccccc2)cs1 | 0.795
COCCn1c(N)c(N(Cc2ccccc2)C(=O)c2oc3ccccc3c2C)c(=O)[nH]c1=O | 6.15
O=C(NCCC(=O)N1CCN(c2cccc(Cl)c2)CC1)c1ccc(Br)cc1 | -55
O=C(Cn1ccc2ccccc21)Nc1ccc2c(c1)OCO2 | 15.2
CCCCn1c(-c2ccccc2)cnc1SCC(=O)NCCc1ccc(OC)c(OC)c1.Cl | -21.5
CCOC(=O)c1ccc(N2C(=O)CC(SCC(=O)Nc3ccc(S(N)(=O)=O)cc3)C2=O)cc1 (stereo not drawn) | 21.2
COc1ccccc1CN1CCN(C(=O)c2ccco2)CC1.O=C(O)C(=O)O | 1.97
COc1ccc(NS(=O)(=O)c2ccc(S(=O)(=O)N3CCCC3)cc2)cc1 | -5.14
c1ccc2c(c1)OCCOCCOCCO2 | 10
COC(=O)c1[nH]c2ccccc2c1NC(=O)CN1CCN(C/C=C/c2ccccc2)CC1 | -76.4
O=C(CSc1cccc(C(F)(F)F)c1)NCc1ccccc1 | -10.6
Cn1ncc(Cl)c1C(=O)NC(=S)Nc1sc2c(c1C#N)CCCCC2 | 22.5
CCOC(=O)c1[nH]c2c(c1C)C(=O)CC(c1ccc(F)cc1)C2 (stereo not drawn) | 1.31
Nc1ccc2ncccc2c1N | 6.47
O=C(NCCc1c[nH]c2ccccc12)C(=O)NCC1OCCCN1S(=O)(=O)c1cccs1 (stereo not drawn) | -0.324
Cc1ccc(CC(=O)NCC(C)C)cc1 | 5.3

Compound | hERG current change (%, negative = inhibition) at 10uM [%]
COc1ccccc1OCc1cc(C(=O)N2CC3C[C@@H]4CC2C[C@H](C3)C4)no1 | -6.52
Cc1cc(C(=O)N(C)CC(=O)Nc2ccccc2C(F)(F)F)c(C)o1 | -15
O=C(COc1ccc(F)cc1)Nc1nccs1 | -5.65
COc1cc(C(CC(=O)N2CCCC2)c2c(OC)cc(OC)c3c(-c4ccccc4)cc(=O)oc23)cc(OC)c1OC (stereo not drawn) | -10.5
O=C(N/C(=C\c1ccccc1)C(=O)N1CCOCC1)c1cccc(Br)c1 | 18.8
O=C(Nc1cnn(Cc2ccc(Cl)c(Cl)c2)c1)C12CC3CC(CC(C3)C1)C2 | 8.16
CCOC(=O)c1c(CN2CCN(CCO)CC2)n(-c2ccccc2)c2cc(Br)c(O)cc12 | -68.2
COc1cc(NS(C)(=O)=O)cc(OC)c1OC | 17.8
O=C(Cn1cc(C(F)(F)F)cc(Cl)c1=O)NC1CCS(=O)(=O)C1 (stereo not drawn) | 3.32
CCOC(=O)NC(=O)/C(C#N)=C/c1ccc(N(C)C)cc1 | 12.8
CC(C)C1N=C2c3ccccc3N=C(SCc3cc(=O)n4cc(Cl)ccc4n3)N2C1=O (stereo not drawn) | -67
N#C/C(C(N)=O)=C1/CCCN1Cc1ccccc1 | 3.07
CCOc1cc(Cl)c(S(=O)(=O)NCc2ccccn2)cc1Cl | -5.91
COc1ccc(CC(=O)NCCS(=O)(=O)N2CCN(c3ccccc3)CC2)cc1 | 12.7
COc1ccc(/C(C)=N\NS(=O)(=O)c2ccccc2)cc1OC | -23.5
CC1CCN(C(=S)NC(=O)c2cccc([N+](=O)[O-])c2)CC1 | 12.2
N#CC1=C(N)OC2=C(C(=O)CCC2)C1c1cccs1 (stereo not drawn) | 9.02
COc1cc2c(cc1OC)-c1cc(OCCN3CCOCC3)nc(=O)n1CC2 | -11.5
CCC(C(=O)NCCc1ccccc1OC)n1nc(C)c2c(C)n(-c3ccccc3)nc2c1=O (stereo not drawn) | -30
Cc1ccc2cc(C(c3nnnn3C3CCCC3)N3CCN(c4ccc(F)cc4)CC3)c(=O)[nH]c2c1 (stereo not drawn) | -42.9
CNC(=S)N1CCC(c2nc3ccccc3s2)CC1 | -2.24
Cc1nn2c(-c3ccccn3)ccnc2c1Br | 6.62

Compound | hERG current change (%, negative = inhibition) at 10uM [%]
CCCC(=O)Nc1ccc(NC(=O)C23CC4CC(CC(C4)C2)C3)cn1 | 4.68
O=C(COC(=O)c1cccc(S(=O)(=O)NCc2ccccc2)c1)c1ccccc1 | -13.1
O=C(Oc1ccccc1)c1ccc(COC(=O)c2cnccn2)cc1 | 9.6
CSC(=NCCCN1CCOCC1)NS(=O)(=O)c1cccs1 | 7.08
CC(NC(=O)c1ccco1)c1ccc(-n2ccnc2)cc1 (stereo not drawn) | -37
CC(C)(C)c1nc(NC(=O)Nc2ccccc2)sc1Br | 13.4
Cc1nnc(SCC(=O)c2c(N)n(C)c(=O)n(C)c2=O)[nH]c1=O | 4.29
CC(C)(C)NC(=O)COC(=O)c1ccc(Cl)c(S(N)(=O)=O)c1 | 12.6
COc1ccccc1N(C(=O)c1cncc(Br)c1)c1nc(-c2ccc(C)cc2)cs1 | 1.07
Cc1cc(S(=O)(=O)N2CCN(Cc3ccc4c(c3)OCO4)CC2)cc(C)c1N1CCCC1=O | -6.5
COc1cc(NC(=O)C2CCCN(S(=O)(=O)c3cccc4nsnc34)C2)cc(OC)c1 (stereo not drawn) | -1.24
CC(C)CN(C(=O)COC(=O)c1cnccn1)c1c(N)n(Cc2ccccc2)c(=O)[nH]c1=O | 16.4
CC1CCN(Cc2nnc(-c3cccc(Br)c3)o2)CC1 | -0.585
Cc1cc(/C=N/n2cnnc2)c(C)n1-c1ccc2c(c1)OCO2 | -19.3
COc1ccc(OC)c(CN2CCN(C(=O)c3ccc(NS(=O)(=O)c4cccc([N+](=O)[O-])c4)cc3)CC2)c1 | -70.6
Cc1ccccc1-c1n[nH]c(=S)n1C | 5.07
O=C(NNC(=O)c1ccccc1[N+](=O)[O-])c1ccc(NS(=O)(=O)c2cccs2)cc1 | 16.2
Cc1ccc2nc3c(cc(C(=O)NC4CCS(=O)(=O)C4)n3Cc3ccccc3)c(=O)n2c1 (stereo not drawn) | 19.6
COc1cc(CNCc2ccccn2)ccc1OCc1ccc(Cl)c(Cl)c1.Cl | -51.2
CCN(CC)P(=O)(Nc1ccc(C)cc1Br)c1ccc(N(C)C)cc1NC(=O)c1ccco1 (stereo not drawn) | 18.3
Cc1ccc(-c2nc(CS(=O)(=O)CC(=O)NC3CCCCC3C)c(C)o2)cc1 (stereo not drawn) | 13.1
CCCn1c(NCc2cccs2)nc2ccccc21 | -29.3

Compound | hERG current change (%, negative = inhibition) at 10uM [%]
O=C(O)c1ccc(N/N=C/c2cn(Cc3ccc(F)cc3)c3ccccc23)cc1 | 12.2
O=c1[nH][nH]c(C(F)(F)F)c1C=Nc1ccccc1Cl | 9.08
COC(=O)c1ccc(C)c(NC(=O)CSc2nnc3ccccn23)c1 | -26.1
COc1cc(/C=C(\C#N)C(=O)c2c[nH]c3ccccc23)cc(OC)c1O | 4.41
CCCC(=O)Nc1nnc(-c2ccc(Cl)s2)o1 | -4.06
COc1ccc(C(C(=O)NC2CCCC2)N(C(=O)c2csnn2)C2CCCC2)cc1 (stereo not drawn) | -6.68
O=C(NNC(=O)c1ccc([N+](=O)[O-])cc1)c1ccc(F)cc1 | 6.25
COc1ccc(CCN(Cc2cc3cccc(C)c3n3nnnc23)C(=O)c2ccncc2)cc1OC | -31.7
COc1ccc2nc(N=NC3=C(O)CC(C)(C)CC3=O)sc2c1 | 13.2
NNC(=O)c1ccc(Cl)cc1 | 2.74
COc1ccccc1OCCC(=O)OCC(=O)Nc1ccc(Br)cc1F | -6.24
C[C@]12CC[C@@H]3c4ccc(O)cc4CC[C@H]3[C@@H]1C[C@@H](O)[C@@H]2O | 1.46
O=c1[nH]c(-c2cccs2)nc2ccccc12 | 6.51
c1ccc2sc(SN3CCOCC3)nc2c1 | 16.7
Cc1ccc(C)c(NC(=O)c2nc(-c3ccccc3)n(-c3ccccc3)n2)c1 | -15.7
COc1cc(C2C(C#N)=C(N)Oc3c2oc(CO)cc3=O)ccc1OC(C)C (stereo not drawn) | 1.04
Cc1c(NC(=O)CN2CCN(c3cccc(Cl)c3)CC2)c(=O)n(-c2ccccc2)n1C | 4.56
CC1Cc2ccccc2N1C(=O)COC(=O)/C=C/c1ccc(F)cc1 (stereo not drawn) | -11.8
CCc1ccc(S(=O)(=O)NCc2cn3c(C)csc3n2)s1 | -23.6
O=C(Nc1nc2ccc(S(=O)(=O)N3CCCC3)cc2s1)c1cccs1 | 12.7
CCOc1ccc(N=Cc2c(O)n(-c3cc(C)cc(C)c3)c(=O)[nH]c2=O)cc1 | -6.48
